# This is one part of the list.
# B1: AMA (Arum maculatun) (protein)
# chain: MAKLLLLLLLPAIVGLAVPRSAAAVGSNYMLSGETLNTDGRLTNGELTLIMQVDCNLVLYHGGWQSNTANNGRDCKLTLTDFGELVIKSGTGSTVWSSGSKQSMKGNYAAVVHPEGRLVIYGPSVFKINPSGAGLNGLPLRNIPLTNNMLFSGQVLYGDGTLSARNHKLVMQGDCNMVLYGGKYGWQSNTHGNGKYCFAMLTHKGELVIRDDDFKSVWSSKSSSKQGDYVFILQDDSLAIIYGPAVFSTGSKKMISMVTN
# What was measured:
# Assay in all cases: glycan array binding signal (z-score within array); higher = stronger binding
# Conditions in all cases: glycan notation: IUPAC condensed, linker removed
# [1] = molecular target: Gal(b1-3)GlcNAc(a1-6)Gal(b1-4)GlcNAc
# How it was run: (§1)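 From the Consortium for Functional Glycomics database, 3228 arrays were curated, keeping only those whose protein sequence was available. Binding is given as a within-array Z-score averaged across arrays sharing a protein sequence and across linkers. Negative Z-scores can be read as non-binding.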
# Gal(b1-3)GlcNAc(b1-2)Man = molecular target: Gal(b1-3)GlcNAc(b1-2)Man
# How it was run: as §1
# [2] = molecular target: Gal(b1-3)GlcNAc(b1-2)Man(a1-3)[Gal(b1-3)GlcNAc(b1-2)Man(a1-6)]Man(b1-4)GlcNAc(b1-4)GlcNAc
# How it was run: as §1
# [3] = molecular target: Gal(b1-3)GlcNAc(b1-2)Man(a1-3)[Gal(b1-3)GlcNAc(b1-2)Man(a1-6)]Man(b1-4)GlcNAc(b1-4)[Fuc(a1-6)]GlcNAc
# How it was run: as §1
# [4] = molecular target: Gal(b1-3)GlcNAc(b1-2)Man(a1-3)[GlcNAc(b1-4)][Gal(b1-3)GlcNAc(b1-2)Man(a1-6)]Man(b1-4)GlcNAc(b1-4)GlcNAc
# How it was run: as §1
# [5] = molecular target: Gal(b1-3)GlcNAc(b1-2)[Gal(b1-3)GlcNAc(b1-6)]Man(a1-6)[Gal(b1-3)GlcNAc(b1-2)Man(a1-3)]Man(b1-4)GlcNAc(b1-4)GlcNAc
# How it was run: as §1
# [6] = molecular target: Gal(b1-3)GlcNAc(b1-3)Gal(b1-3)GlcNAc
# How it was run: as §1
# [7] = molecular target: Gal(b1-3)GlcNAc(b1-3)Gal(b1-4)Glc
# How it was run: as §1
# [8] = molecular target: Gal(b1-3)GlcNAc(b1-3)Gal(b1-4)GlcNAc
# How it was run: as §1
# [9] = molecular target: Gal(b1-3)GlcNAc(b1-3)Gal(b1-4)GlcNAc(b1-2)Man(a1-3)[Gal(b1-3)GlcNAc(b1-3)Gal(b1-4)GlcNAc(b1-2)Man(a1-6)]Man(b1-4)GlcNAc(b1-4)GlcNAc
# How it was run: as §1
# [10] = molecular target: Gal(b1-3)GlcNAc(b1-3)Gal(b1-4)GlcNAc(b1-2)[Gal(b1-3)GlcNAc(b1-3)Gal(b1-4)GlcNAc(b1-6)]Man(a1-6)[Gal(b1-3)GlcNAc(b1-3)Gal(b1-4)GlcNAc(b1-2)Man(a1-3)]Man(b1-4)GlcNAc(b1-4)[Fuc(a1-6)]GlcNAc
# How it was run: as §1
# [11] = molecular target: Gal(b1-3)GlcNAc(b1-3)Gal(b1-4)GlcNAc(b1-3)Gal(b1-4)GlcNAc(b1-2)[Gal(b1-3)GlcNAc(b1-3)Gal(b1-4)GlcNAc(b1-3)Gal(b1-4)GlcNAc(b1-6)]Man(a1-6)[Gal(b1-3)GlcNAc(b1-3)Gal(b1-4)GlcNAc(b1-3)Gal(b1-4)GlcNAc(b1-2)Man(a1-3)]Man(b1-4)GlcNAc(b1-4)[Fuc(a1-6)]GlcNAc
# How it was run: as §1
# [12] = molecular target: Gal(b1-3)GlcNAc(b1-3)Gal(b1-4)GlcNAc(b1-6)[Gal(b1-3)GlcNAc(b1-3)]Gal(b1-4)Glc
# How it was run: as §1
# [13] = molecular target: Gal(b1-3)GlcNAc(b1-3)Gal(b1-4)[Fuc(a1-3)]GlcNAc
# How it was run: as §1
# [14] = molecular target: Gal(b1-3)GlcNAc(b1-3)Gal(b1-4)[Fuc(a1-3)]GlcNAc(b1-6)[Gal(b1-3)GlcNAc(b1-3)]Gal(b1-4)Glc
# How it was run: as §1
# [15] = molecular target: Gal(b1-3)GlcNAc(b1-3)GalNAc
# How it was run: as §1
# [16] = molecular target: Gal(b1-3)GlcNAc(b1-6)Gal(b1-4)GlcNAc
# How it was run: as §1
# [17] = molecular target: Gal(b1-3)GlcNAc(b1-6)GalNAc
# How it was run: as §1
# [18] = molecular target: Gal(b1-3)GlcNAc(b1-6)[Gal(b1-3)]GalNAc
# How it was run: as §1
# Gal(b1-3)GlcNAc6S = molecular target: Gal(b1-3)GlcNAc6S
# How it was run: as §1
# [19] = molecular target: Gal(b1-3)[Fuc(a1-4)]GlcNAc
# How it was run: as §1
# [20] = molecular target: Gal(b1-3)[Fuc(a1-4)]GlcNAc(b1-2)Man
# How it was run: as §1
# [21] = molecular target: Gal(b1-3)[Fuc(a1-4)]GlcNAc(b1-2)Man(a1-3)[Gal(b1-3)[Fuc(a1-4)]GlcNAc(b1-2)Man(a1-6)]Man(b1-4)GlcNAc(b1-4)[Fuc(a1-6)]GlcNAc
# How it was run: as §1
# [22] = molecular target: Gal(b1-3)[Fuc(a1-4)]GlcNAc(b1-3)Gal(b1-3)[Fuc(a1-4)]GlcNAc
# How it was run: as §1
# [23] = molecular target: Gal(b1-3)[Fuc(a1-4)]GlcNAc(b1-3)Gal(b1-4)GlcNAc
# How it was run: as §1
# [24] = molecular target: Gal(b1-3)[Fuc(a1-4)]GlcNAc(b1-3)Gal(b1-4)[Fuc(a1-3)]GlcNAc
# How it was run: as §1
# [25] = molecular target: Gal(b1-3)[Fuc(a1-4)]GlcNAc(b1-6)GalNAc
# How it was run: as §1
# [26] = molecular target: Gal(b1-3)[GlcNAc(b1-6)]GalNAc
# How it was run: as §1
# [27] = molecular target: Gal(b1-3)[Neu5Ac(a2-6)]GalNAc
# How it was run: as §1
# [28] = molecular target: Gal(b1-3)[Neu5Ac(a2-6)]GlcNAc(b1-4)Gal(b1-4)Glc
# How it was run: as §1
# [29] = molecular target: Gal(b1-3)[Neu5Ac(a2-6)]GlcNAc(b1-6)Gal(b1-4)Glc
# How it was run: as §1
# [30] = molecular target: Gal(b1-3)[Neu5Ac(b2-6)]GalNAc
# How it was run: as §1
# Gal(b1-4)Gal = molecular target: Gal(b1-4)Gal
# How it was run: as §1
# [31] = molecular target: Gal(b1-4)GalNAc(a1-3)[Fuc(a1-2)]Gal(b1-4)GlcNAc
# How it was run: as §1
# [32] = molecular target: Gal(b1-4)GalNAc(b1-3)[Fuc(a1-2)]Gal(b1-4)GlcNAc
# How it was run: as §1
# Gal(b1-4)Glc = molecular target: Gal(b1-4)Glc
# How it was run: as §1
# Gal(b1-4)Glc6S = molecular target: Gal(b1-4)Glc6S
# How it was run: as §1
# Gal(b1-4)GlcNAc = molecular target: Gal(b1-4)GlcNAc
# How it was run: as §1
# [33] = molecular target: Gal(b1-4)GlcNAc(a1-6)Gal(b1-4)GlcNAc
# How it was run: as §1
# Gal(b1-4)GlcNAc(b1-2)Man = molecular target: Gal(b1-4)GlcNAc(b1-2)Man
# How it was run: as §1
# [34] = molecular target: Gal(b1-4)GlcNAc(b1-2)Man(a1-3)Man(b1-4)GlcNAc(b1-4)GlcNAc
# How it was run: as §1
# [35] = molecular target: Gal(b1-4)GlcNAc(b1-2)Man(a1-3)[Gal(b1-4)GlcNAc(b1-2)Man(a1-6)]Man(b1-4)GlcNAc(b1-4)GlcNAc
# How it was run: as §1
# [36] = molecular target: Gal(b1-4)GlcNAc(b1-2)Man(a1-3)[Gal(b1-4)GlcNAc(b1-2)Man(a1-6)]Man(b1-4)GlcNAc(b1-4)[Fuc(a1-6)]GlcNAc
# How it was run: as §1
# [37] = molecular target: Gal(b1-4)GlcNAc(b1-2)Man(a1-3)[Gal(b1-4)GlcNAc(b1-2)Man(a1-6)][Gal(b1-4)GlcNAc(b1-4)]Man(b1-4)GlcNAc(b1-4)[Fuc(a1-6)]GlcNAc
# How it was run: as §1
# [38] = molecular target: Gal(b1-4)GlcNAc(b1-2)Man(a1-3)[Gal(b1-4)GlcNAc(b1-2)Man(a1-6)][GlcNAc(b1-4)]Man(b1-4)GlcNAc(b1-4)[Fuc(a1-6)]GlcNAc
# How it was run: as §1
binder,measurement,setting,value
B1,glycan array binding signal (z-score),[1],-0.208
same,glycan array binding signal (z-score),Gal(b1-3)GlcNAc(b1-2)Man,-0.206
same,glycan array binding signal (z-score),[2],3.15
same,glycan array binding signal (z-score),[3],1.01
same,glycan array binding signal (z-score),[4],-0.205
same,glycan array binding signal (z-score),[5],-0.207
same,glycan array binding signal (z-score),[6],-0.207
same,glycan array binding signal (z-score),[7],-0.214
same,glycan array binding signal (z-score),[8],-0.22
same,glycan array binding signal (z-score),[9],0.323
same,glycan array binding signal (z-score),[10],-0.169
same,glycan array binding signal (z-score),[11],-0.182
same,glycan array binding signal (z-score),[12],-0.215
same,glycan array binding signal (z-score),[13],-0.209
same,glycan array binding signal (z-score),[14],-0.21
same,glycan array binding signal (z-score),[15],-0.212
same,glycan array binding signal (z-score),[16],-0.22
same,glycan array binding signal (z-score),[17],-0.216
same,glycan array binding signal (z-score),[18],-0.211
same,glycan array binding signal (z-score),Gal(b1-3)GlcNAc6S,-0.221
same,glycan array binding signal (z-score),[19],-0.21
same,glycan array binding signal (z-score),[20],-0.201
same,glycan array binding signal (z-score),[21],-0.207
same,glycan array binding signal (z-score),[22],-0.202
same,glycan array binding signal (z-score),[23],-0.216
same,glycan array binding signal (z-score),[24],-0.203
same,glycan array binding signal (z-score),[25],-0.216
same,glycan array binding signal (z-score),[26],-0.208
same,glycan array binding signal (z-score),[27],-0.218
same,glycan array binding signal (z-score),[28],-0.218
same,glycan array binding signal (z-score),[29],-0.198
same,glycan array binding signal (z-score),[30],-0.22
same,glycan array binding signal (z-score),Gal(b1-4)Gal,-0.213
same,glycan array binding signal (z-score),[31],-0.216
same,glycan array binding signal (z-score),[32],-0.218
same,glycan array binding signal (z-score),Gal(b1-4)Glc,-0.217
same,glycan array binding signal (z-score),Gal(b1-4)Glc6S,-0.214
same,glycan array binding signal (z-score),Gal(b1-4)GlcNAc,-0.213
same,glycan array binding signal (z-score),[33],-0.215
same,glycan array binding signal (z-score),Gal(b1-4)GlcNAc(b1-2)Man,-0.205
same,glycan array binding signal (z-score),[34],-0.215
same,glycan array binding signal (z-score),[35],3.36
same,glycan array binding signal (z-score),[36],0.127
same,glycan array binding signal (z-score),[37],-0.215
same,glycan array binding signal (z-score),[38],-0.224

# Source: the supplement of paper PMC8728848
